From article PMC4336329 (PLoS ONE, 2015)
The campaign covered roughly 310,000 compounds. About 2,200 (0.71%) showed an effect of 50% or more. The effect is printed as a negative number. The list shows a part of the results.

Target: human ether-à-go-go-related gene (hERG) potassium channel (human, UniProt Q12809)
Experiment: primary screen, population patch clamp on CHO cells stably expressing hERG

human ether-à-go-go-related gene (hERG) potassium channel, sequence (Q12809 whole entry, looked up): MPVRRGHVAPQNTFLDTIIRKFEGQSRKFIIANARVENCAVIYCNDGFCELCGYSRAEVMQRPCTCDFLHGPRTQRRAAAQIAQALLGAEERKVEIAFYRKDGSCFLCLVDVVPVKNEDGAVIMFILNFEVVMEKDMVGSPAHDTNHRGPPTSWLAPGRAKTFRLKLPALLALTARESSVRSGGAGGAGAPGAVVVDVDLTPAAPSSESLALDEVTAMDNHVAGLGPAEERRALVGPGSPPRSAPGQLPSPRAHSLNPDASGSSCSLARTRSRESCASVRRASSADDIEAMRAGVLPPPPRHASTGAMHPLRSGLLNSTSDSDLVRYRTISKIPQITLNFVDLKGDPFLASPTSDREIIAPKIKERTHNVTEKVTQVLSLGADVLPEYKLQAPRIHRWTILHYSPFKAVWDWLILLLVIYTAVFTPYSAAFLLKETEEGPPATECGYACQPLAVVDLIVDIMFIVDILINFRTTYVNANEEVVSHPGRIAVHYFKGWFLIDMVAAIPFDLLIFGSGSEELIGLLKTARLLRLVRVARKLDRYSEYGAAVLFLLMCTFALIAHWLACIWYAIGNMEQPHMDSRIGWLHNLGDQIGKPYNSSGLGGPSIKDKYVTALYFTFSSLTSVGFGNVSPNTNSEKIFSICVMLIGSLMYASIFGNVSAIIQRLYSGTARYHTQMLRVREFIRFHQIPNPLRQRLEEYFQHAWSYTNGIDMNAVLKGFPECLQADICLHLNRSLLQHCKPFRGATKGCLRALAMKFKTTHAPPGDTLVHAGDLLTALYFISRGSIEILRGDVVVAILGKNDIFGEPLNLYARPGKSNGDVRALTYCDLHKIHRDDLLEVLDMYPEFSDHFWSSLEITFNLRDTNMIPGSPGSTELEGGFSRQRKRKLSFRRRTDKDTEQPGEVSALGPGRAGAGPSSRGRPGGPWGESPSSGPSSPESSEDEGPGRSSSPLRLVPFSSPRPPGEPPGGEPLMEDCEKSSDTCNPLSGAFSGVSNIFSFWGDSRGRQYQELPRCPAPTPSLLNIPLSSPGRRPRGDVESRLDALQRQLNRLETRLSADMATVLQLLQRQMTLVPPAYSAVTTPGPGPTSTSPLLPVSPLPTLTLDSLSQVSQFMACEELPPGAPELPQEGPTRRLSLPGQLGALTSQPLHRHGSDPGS

SMILES	hERG current change (%, negative = inhibition) at 1uM [%]
Cc1noc(C)c1C(=O)OCC(=O)NCCc1ccc(Cl)cc1	11.9
O=C(CCNS(=O)(=O)c1ccccc1)OCC(=O)c1ccc[nH]1	12.6
CCOC(=O)C(CC)Sc1ncnc2c1nnn2-c1ccc(F)cc1 (stereo not drawn)	11.4
Cc1nnc(-c2ccc(N3CCCCCC3)c([N+](=O)[O-])c2)o1	12.2
CCOc1ccc(NC(=O)CN(C)C(=O)C2CCN(C(=O)c3ccc(Cl)cc3)CC2)cc1OCC	-0.0053
CC(=C/c1ccccc1)/C=N/n1c(-c2ccco2)n[nH]c1=S	11.9
CCOc1cc(CNn2cnnc2)cc(Br)c1OCC(=O)NC1CCCCC1	1.98
O=C(Cn1cnnn1)NCc1ccccc1	18.2
O=C(c1ccc(Br)o1)N1CCCc2ccccc21	5.26
C#Cc1ccc([C@@H]2C=C(C(=O)N3CCOCC3)O[C@H](OCC)[C@H]2CCCO)cc1	7.15
COc1c(F)c(F)cc2c(=O)c(C(=O)O)cn(C3CC3)c12	2.58
COc1ccc(-n2nnnc2SCC(=O)N2CCN(C(=O)c3ccco3)CC2)cc1OC	11
Cc1ccc(Nc2nc(N)nc(CN3CCN(Cc4ccc5c(c4)OCO5)CC3)n2)cc1Cl	-34.6
Cc1cccc2nc(CSc3ccccc3C(=O)O)cn12	15.7
Cc1cc(C)cc(NC(=O)C(OC(=O)c2ccc(NC(=O)CC#N)cc2)c2ccccc2)c1 (stereo not drawn)	9.31
COc1ccc(CN2C(=O)c3ccccc3C2=O)cc1C(=O)N(C)CC(=O)Nc1c(C)cccc1C	7.18
O=C(CSc1nn(-c2ccc(F)cc2)c(=S)s1)NC(=O)NCc1ccco1	12.7
COc1cccc(C2C([N+](=O)[O-])=C(N)Oc3cc(C)oc(=O)c32)c1 (stereo not drawn)	10.3
COc1ccc(C(=O)NNC2=CC(=O)CC(C)(C)C2)cc1	9.33
O=C(CN1C(=O)COc2ccccc21)NCCN1CCCC1	12.7
O=C(NCCc1ccccc1)c1cccnc1N1CCCCCC1	-2.68
CCCC(=O)Nc1ccc2c(c1)Cc1ccccc1-2	10.9
COc1ccc(C2C(C(=O)N3CCN(C)CC3)c3ccccc3C(=O)N2C2CCCCC2)cc1 (stereo not drawn)	14.4
COc1ccc2nc(N(CCN(C)C)C(=O)/C=C/c3cccs3)sc2c1.Cl	5.55
